First the molecules themselves.
B1: PhoQ; a variant is named by its letters at X, in order, P23837 (parent)
chain: MKKLLRLFFPLSLRVRFLLATAAVVLVLSLAYGMVALIGYSVSFDKTTFRLLRGESNLFYTLAKWENNKLHVELPENIDKQSPTMTLIYDENGQLLWAQRDVPWLMKMIQPDWLKSNGFHEIEADVNDTSLLLSGDHSIQQQLQEVREDDDDAEMTHSVAVNVYPATSRMPKLTIVVVDTIPVELKSSYMVWSWFIYVLSANLLLVIPLLWVAAWWSLRPIEALAKEVRELEEHNRELLNPATTRELTSLVRNLNRLLKSERERYDKYRTTLTDLTHSLKTPLXXLQXXLRSLRSEKMSVSDAEPVMLEQISRISQQIGYYLHRASMRGGTLLSRELHPVAPLLDNLTSALNKVYQRKGVNISLDISPEISFVGEQNDFVEVMGNVLDNACKYCLEFVEISARQTDEHLYIVVEDDGPGIPLSKREVIFDRGQRVDTLRPGQGVGLAVAREITEQYEGKIVAGESMLGGARMEVIFGRQHSAPKDE

The other results are listed elsewhere or left out.

In this test the parent is B1. Put plainly: enrichment ratio after two sorts for PhoP signalling (ratio (wild type AVST 3.29)); higher = more functional. As to conditions: with PhoP (E. coli).
With GGAY, the enrichment ratio is not above 0.25.
As for FGAK, the enrichment ratio was not above 0.25.
With LSME the figure was not above 0.25; with RFPK, not above 0.25; with IIKS, not above 0.25.
Consider SSYI, for which the enrichment ratio was determined as 2.05.
On to RPCD, for which the enrichment ratio was not above 0.25.
For the variant MHCM, the enrichment ratio was not above 0.25.
For the variant VHNM, the enrichment ratio is not above 0.25.
Then GVMQ, with 5.97.
For the variant HWFV, the enrichment ratio was not above 0.25.
For the variant SAPL, the enrichment ratio was 1.3.
EGDN: the enrichment ratio is not above 0.25.
Take YFGD: the enrichment ratio is not above 0.25.
Then ENSR, with not above 0.25; and HYHE, with not above 0.25.
RTDY: the enrichment ratio is not above 0.25.
With PFRF, the enrichment ratio is not above 0.25.
For the variant DILG, the enrichment ratio is not above 0.25.
Take ELQG: the enrichment ratio was not above 0.25.
Take QQCP: the enrichment ratio is not above 0.25.
As for VDGD, the enrichment ratio was not above 0.25.
In the case of SDNR, the enrichment ratio is not above 0.25.
For KHEF, the enrichment ratio is not above 0.25.
In the case of MKMT, the enrichment ratio is not above 0.25.
With YFAW the figure was not above 0.25.
Consider FNIA, for which the enrichment ratio is not above 0.25.
As to TLAI, the enrichment ratio was 3.87.
TSPM: the enrichment ratio is not above 0.25.
Regarding GPCT, the enrichment ratio is not above 0.25.
Then TSCG, with 7.32.
On to PDWV, for which the enrichment ratio was not above 0.25.
For MHPV, the enrichment ratio is not above 0.25.
As for RDPR, the enrichment ratio was not above 0.25.
For VHGR, the enrichment ratio was not above 0.25.
As to GYAE, the enrichment ratio is not above 0.25.
For WWIY, the enrichment ratio is not above 0.25.
As for NPKR, the enrichment ratio was not above 0.25.
For RIQF, the enrichment ratio was not above 0.25.
Take FHHV: the enrichment ratio is not above 0.25.
As to HLYV, the enrichment ratio is not above 0.25.
Take SGIH: the enrichment ratio turned out to be 7.04.
Consider QRHA, for which the enrichment ratio was not above 0.25.
With EGTA the figure was not above 0.25; with ATIR, 3.68; with VMPH, not above 0.25.
On to PNIL, for which the enrichment ratio was not above 0.25.
On to TPEG, for which the enrichment ratio is not above 0.25.
Turning to DMEI, the enrichment ratio is not above 0.25.
As to FCGA, the enrichment ratio is not above 0.25.
Consider NYMD, for which the enrichment ratio was not above 0.25.
Regarding KNRM, the enrichment ratio was not above 0.25.
As to HIAW, the enrichment ratio was not above 0.25.
For EGED, the enrichment ratio is not above 0.25.
Then ETHL, with not above 0.25.
Regarding FNCG, the enrichment ratio is not above 0.25.
For SYLS, the enrichment ratio was determined as 0.315.
With MRKQ the figure was not above 0.25; with VMYH, not above 0.25; with KEIS, not above 0.25.
As to AQGS, the enrichment ratio stood at 5.42.
Take PAKA: the enrichment ratio is not above 0.25.
Then FEGE, with not above 0.25; and DSRQ, with not above 0.25.
For ITRV, the enrichment ratio was not above 0.25.
With ECCD, the enrichment ratio was not above 0.25.
Regarding QNSG, the enrichment ratio was not above 0.25.
Turning to TRDW, the enrichment ratio was not above 0.25.
For RHCE, the enrichment ratio was not above 0.25.
Regarding YWFG, the enrichment ratio is not above 0.25.
In the case of IYAS, the enrichment ratio is not above 0.25.
With RRWL the figure was not above 0.25.
With HSMY, the enrichment ratio was not above 0.25.
On to GADH, for which the enrichment ratio was not above 0.25.
Take PHYQ: the enrichment ratio was not above 0.25.
For the variant NGYE, the enrichment ratio was not above 0.25.
On to VLVN, for which the enrichment ratio is not above 0.25.
For the variant ITMP, the enrichment ratio was not above 0.25.
Turning to MYVQ, the enrichment ratio is not above 0.25.
Then PVKF, with not above 0.25; and PTRN, with not above 0.25.
Regarding PQDR, the enrichment ratio is not above 0.25.
With FYAR, the enrichment ratio was not above 0.25.
As to SLEF, the enrichment ratio was not above 0.25.
As to DNSA, the enrichment ratio was 1.38.
Then VFEL, with not above 0.25; and SRDL, with not above 0.25; and KANT, with not above 0.25.
As for EKWI, the enrichment ratio is not above 0.25.
With FING, the enrichment ratio is not above 0.25.
For the variant VWQL, the enrichment ratio was not above 0.25.
Consider ITFL, for which the enrichment ratio is not above 0.25.
ARFY: the enrichment ratio was not above 0.25.
Take YWQS: the enrichment ratio is not above 0.25.
For YWPE, the enrichment ratio is not above 0.25.
As to YERM, the enrichment ratio is not above 0.25.
Then PRYY, with not above 0.25; and ICRA, with not above 0.25.
NAAP: the enrichment ratio is not above 0.25.
For the variant KVPY, the enrichment ratio is not above 0.25.
With HLLP the figure was not above 0.25.
Regarding VVPE, the enrichment ratio is not above 0.25.
PRMG: the enrichment ratio is not above 0.25.
Turning to MTDP, the enrichment ratio is not above 0.25.
In the case of ISDK, the enrichment ratio is not above 0.25.
Consider CTFL, for which the enrichment ratio was not above 0.25.
For the variant HQTD, the enrichment ratio was not above 0.25.
With ERGA, the enrichment ratio was not above 0.25.
As to CTSS, the enrichment ratio is not above 0.25.
As to WHHS, the enrichment ratio is not above 0.25.
With NSDT the figure was not above 0.25; with TVVV, not above 0.25; with HEMQ, 6.08.
With KAKV, the enrichment ratio is not above 0.25.
Then IHEW, with not above 0.25; and VEID, with not above 0.25; and EKFT, with not above 0.25.
For MPMI, the enrichment ratio was not above 0.25.
In the case of NTDR, the enrichment ratio was not above 0.25.
Take HCAP: the enrichment ratio was not above 0.25.
With HRFF the figure was not above 0.25.
Then QIPI, with not above 0.25; and FYSA, with not above 0.25.
Turning to WGHD, the enrichment ratio is not above 0.25.
NEKI: the enrichment ratio is not above 0.25.
Consider LNKM, for which the enrichment ratio is not above 0.25.
RWRN: the enrichment ratio was not above 0.25.
With VLDI, the enrichment ratio is not above 0.25.
With GADK, the enrichment ratio is not above 0.25.
On to IWCM, for which the enrichment ratio is not above 0.25.
In the case of STAY, the enrichment ratio was 3.54.
With FADT, the enrichment ratio was not above 0.25.
Consider RRWV, for which the enrichment ratio was not above 0.25.
On to NDKA, for which the enrichment ratio was not above 0.25.
Turning to ICYF, the enrichment ratio was not above 0.25.
Regarding IGYW, the enrichment ratio is not above 0.25.
With YYQK the figure was not above 0.25; with TRKY, not above 0.25; with WHQY, not above 0.25.
On to VQFV, for which the enrichment ratio was not above 0.25.
Take NVPA: the enrichment ratio was not above 0.25.
Turning to FFPD, the enrichment ratio is not above 0.25.
Then RGPK, with not above 0.25; and YVDW, with not above 0.25.
As to EDTG, the enrichment ratio was not above 0.25.
As to AGLK, the enrichment ratio worked out at 5.36.
FRVF: the enrichment ratio was not above 0.25.
With LRQQ, the enrichment ratio was not above 0.25.
PEDV: the enrichment ratio was not above 0.25.
Turning to MHII, the enrichment ratio is not above 0.25.
With AFIK, the enrichment ratio is not above 0.25.
YWCP: the enrichment ratio was not above 0.25.
With KSPF the figure was not above 0.25; with PAFH, not above 0.25; with TLNK, 4.31.
With RPPH the figure was not above 0.25; with GCRD, not above 0.25.
Then NYSF, with not above 0.25; and AHIP, with not above 0.25; and GFEF, with not above 0.25.
In the case of LFKQ, the enrichment ratio is not above 0.25.
Consider QVDL, for which the enrichment ratio is 1.84.
WSAD: the enrichment ratio was not above 0.25.
With TMSN the figure was 12.5.
NAMF: the enrichment ratio was not above 0.25.
Turning to WPTW, the enrichment ratio was not above 0.25.
Then PRNN, with not above 0.25.
Consider IQGC, for which the enrichment ratio was not above 0.25.
For the variant ERLS, the enrichment ratio is not above 0.25.
For the variant TSHQ, the enrichment ratio worked out at 11.8.
ANAI: the enrichment ratio is 30.1.
Regarding YPDA, the enrichment ratio is not above 0.25.
As to SVLL, the enrichment ratio was found to be 3.01.
As to NMIK, the enrichment ratio is not above 0.25.
Consider QVGL, for which the enrichment ratio turned out to be 0.705.
As for QSEP, the enrichment ratio was not above 0.25.
Consider PEMF, for which the enrichment ratio was not above 0.25.
Take YEES: the enrichment ratio was not above 0.25.
Regarding DNIQ, the enrichment ratio was not above 0.25.
Then GLDN, with not above 0.25; and HHGI, with not above 0.25; and YCWC, with not above 0.25.
As to AHPF, the enrichment ratio was not above 0.25.
For YPQT, the enrichment ratio was not above 0.25.
Then QNPN, with not above 0.25.
With NMKH, the enrichment ratio was not above 0.25.
With EAAG the figure was not above 0.25; with YYQE, not above 0.25; with GISY, 3.52.
As to VDSV, the enrichment ratio was not above 0.25.
Then EGTV, with not above 0.25; and CHMF, with not above 0.25.
Consider SMEG, for which the enrichment ratio was not above 0.25.
Then PQTS, with 0.402; and TFRE, with not above 0.25.

Values taken from a collection of fitness landscapes (doi:10.1126/science.1257360).
